# “And” between values parts separate entries of the source, which are not always exact repeats. Equal values may be shown once. About 50,000 (12%) of roughly 420,000 compounds were called active. The shares of active, inactive and inconclusive entries below differ from those in the screen. Calls come from the whole dose curve; as a rule, active = well fitted inhibition curve with a large enough effect; inconclusive = small, poorly fitted or top-dose-only effect; inactive = flat fitted curve, though single readings scatter. Potencies of inconclusive entries are doubtful fits and often do not repeat.
# Assay: qHTS for Inhibitors of human tyrosyl-DNA phosphodiesterase 1 (TDP1): qHTS in cells in presence of CPT; note: nearly all actives have a fitted effect of over 55% in size
# Conditions: chicken DT40 Tdp1-/-;hTDP1 cells + 20 nM CPT, ATP luminescence, 48 h; activity change, negative = growth inhibition: at 46.2 µM (top of the series) unless noted
# Summary of the method: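 Chicken DT40 Tdp1-/- cells stably complemented with human TDP1 were seeded at 400 cells/well in medium containing 20 nM camptothecin, exposed to pin-transferred compounds, and grown at 37 °C for at least 48 hr. Viability was read as ATP luminescence.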
# % is set by controls: 0 for no effect and ±100 for the full control effect; potency is the fitted concentration of half-maximal effect; tags give direction and shape of the fitted curve.
SMILES,Potency,"activity change, negative = growth inhibition"
CCCCn1c(NCc2ccc3c(c2)OCO3)nc2ccccc21,"inconclusive: 29.1 µM [inhibitor, single point]",
CC(=O)[C@@]1(O)[C@H](O)CC2C3CCC4CC(O)CC[C@]4(C)C3CC[C@@]21C (stereo partly specified),,inactive: -11.9% [at 9.04 µM]
CCOC(=O)COc1cc(C)c(Cl)cc1C(=O)c1ccn2nc(-c3ccc(OC)cc3)cc2n1,"inconclusive: 7.31 µM [inhibitor, partial curve]",
CC1C(O)=C(c2nc3ccccc3[nH]2)C(=N)N1c1ccccc1 (stereo unspecified),"inconclusive: 18.4 µM [inhibitor, single point]",
COc1ccc(C(=O)Nc2ccnn2C2CCN(CCC(C)c3ccc(C)o3)CC2)cc1 (stereo unspecified),"inconclusive: 11.6 µM [inhibitor, partial curve, poor fit]",
Cc1ccccc1C(=O)N1CCC(C(=O)Nc2ccc(F)cc2)CC1,,inactive: -8.03%
COc1ccc2[nH]c3c4c(ccc3c2c1)C(=O)C=CC4=O,active: 0.231 µM,
O=C(CCNS(=O)(=O)c1ccc(Cl)cc1)NCc1cccs1,"inconclusive: 14.6 µM [inhibitor, single point]",
COc1ccc(NC(=O)c2cccn2-c2nnc(N3CCCCC3)s2)c(OC)c1,"inconclusive: 18.4 µM [inhibitor, single point]",
COc1ccc(/C=C/C(=O)Oc2cc(C)[nH]c(=O)c2[N+](=O)[O-])cc1OC,,inactive: 1.2%
Oc1ccc(N=Nc2n[nH]c(-c3ccc(Br)cc3)n2)cc1,"inconclusive: 25.9 µM [inhibitor, single point]",
CCN(CCN(C)C)C(=O)c1ccc2c(c1NCCO)C(=O)c1ccccc1C2=O,"inconclusive: 18.4 µM [inhibitor, single point]",
NC(CSC(c1ccccc1)(c1ccccc1)c1ccc2c(c1)OCO2)C(=O)O (stereo unspecified),"inconclusive: 4.11 µM [inhibitor, single point]",
Cc1c(C(=O)NCCSCc2ccc(Cl)cc2Cl)cccc1[N+](=O)[O-],"inconclusive: 25.9 µM [inhibitor, single point]",
O=S(=O)(c1ccc(NC(=S)NC23CC4CC(CC(C4)C2)C3)cc1)N1CCCCC1,"inconclusive: 29.1 µM [inhibitor, single point]",
CCOc1ccccc1NC(=O)CSc1ccc(-c2ccco2)nn1,"inconclusive: 16.4 µM [inhibitor, single point]",
CN(Cc1ccccc1)CC(O)CN(C)Cc1ccccc1,"inconclusive: 20.6 µM [inhibitor, single point]",
COc1ccc(N(Cc2cc3ccc(C)cc3[nH]c2=O)S(=O)(=O)c2ccccc2)cc1,"inconclusive: 29.1 µM [inhibitor, single point]",
CCCC(=O)Nc1nc(-c2ccc3c(c2)CCN3S(C)(=O)=O)cs1,"inconclusive: 18.4 µM [inhibitor, single point]",
CCc1nn(CC(=O)NCCc2ccc(OC)c(OC)c2)c(=O)c2cc3occc3n12,"inconclusive: 23.1 µM [inhibitor, partial curve]",
CN1CCC(N(C)S(=O)(=O)c2ccc(NC(=O)COc3ccc(Cl)cc3)cc2)CC1,"inconclusive: 23.1 µM [inhibitor, single point]",
O=C(CSCc1nc2ccccc2[nH]1)N1CCN(c2cccc(Cl)c2)CC1,active: 23.1 µM,

SMILES,Potency,"activity change, negative = growth inhibition"
CN(CCCN1c2ccccc2CCc2ccccc21)CC(=O)c1ccc(Cl)cc1,"inconclusive: 26.6 µM [inhibitor, single point]",
COc1ccccc1CNC(=O)c1cc(-c2ccncc2)nc2c(Cl)cccc12,"inconclusive: 16.4 µM [inhibitor, single point]",
O=C(Nc1ccc(OCC(F)(F)C(F)F)c(C(F)(F)F)c1)c1ccccc1O,"inconclusive: 25.9 µM [inhibitor, single point]",
CN(C)Cc1ccccc1-c1nc(N(C)Cc2ccco2)c2ccccc2n1,active: 18.4 µM,
CCOc1ccc(NC(=O)C2=C(C)C(=O)OC23CCC(C)CC3)cc1 (stereo unspecified),"inconclusive: 29.1 µM [inhibitor, partial curve] and inconclusive: 29.1 µM [inhibitor, single point]",
COc1cc(NC(=O)C(C)Oc2ccccc2)ccc1NC(=O)COc1ccccc1 (stereo unspecified),"inconclusive: 25.9 µM [inhibitor, single point]",
COc1ccc(C(O)c2nc(-c3ccc(N(C)C)cc3)cs2)cc1 (stereo unspecified),"inconclusive: 14.6 µM [inhibitor, partial curve, poor fit]",
CCc1ccc(-c2cc(C)no2)cc1S(=O)(=O)N1CCOc2ccccc21,"inconclusive: 29.1 µM [inhibitor, single point]",
O=C(NCc1ccccn1)c1cc(-c2ccc(Br)cc2)nc2ccccc12,"inconclusive: 29.1 µM [inhibitor, single point]",
COCCCNC(=O)c1ccc(C(=O)NCCCOC)cc1,,inactive: -6.84%
COc1ccccc1NC(=O)c1ccc(-c2nc(COc3ccc(C)cc3)c(C)o2)cc1,active: 20.6 µM,
CCCCCC(=O)N1C[C@@H](O)[C@H](n2cc(-c3ccc(F)cc3)nn2)C[C@@H]1c1ccc(C)cc1,"inconclusive: 29.1 µM [inhibitor, single point]",
Cc1ccc(C(=O)O)cc1S(=O)(=O)Nc1ccccc1C(=O)NC1CC1,,inactive: 13.4%
CCOC(=O)c1ccc(NC(=O)CSc2nc(-c3ccc(F)cc3)cc(C(F)(F)F)c2C#N)cc1,"inconclusive: 29.1 µM [inhibitor, single point]",
CC(=O)c1c(C)n([O-])c2cc(C)ccc2[n+]1=O,,inactive: -23.7%
CCCC(=O)Nc1c(-c2cccs2)c(=O)c2ccccc2n1C,,inactive: -7%
CNC(=O)c1nc(C)c(C2(C)CC(c3cccc([N+](=O)[O-])c3)=NO2)s1 (stereo unspecified),,inactive: -11.5%
O=c1c2ccccc2nc(-c2cccs2)n1-c1ccc2ccccc2c1,"inconclusive: 9.2 µM [inhibitor, partial curve, poor fit]",
CCOC(=O)c1c(C)[nH]c(C)c1S(=O)(=O)N(C)CC(=O)NCc1ccc(C)cc1,inactive,
CCOc1cccc(CNC(=O)c2ccc(N3CCCC3)c(NC(=O)Nc3ccccc3CC)c2)c1,"inconclusive: 29.1 µM [inhibitor, single point]",
c1ccc2c(c1)nc(CN1CCOCC1)n1c3ccccc3nc21,active: 13 µM,
Cc1cccc(OCC(O)Cn2c(=N)n(CCN3CCOCC3)c3ccccc32)c1 (stereo unspecified),,inconclusive: -32.4% [inhibitor]

SMILES,Potency,"activity change, negative = growth inhibition"
CCOc1ccc2[nH]c(=O)c(CN(CC3COCCO3)C(=O)C3CC3)cc2c1 (stereo unspecified),,inactive: -21.6%
Cn1ccc2c(-c3ccc(C(F)(F)F)cc3)cc3c(c21)C1CCC3O1 (stereo unspecified),active: 23.1 µM,
C/C(=N\NC(=S)Nc1ccc(C)c(C)c1)c1ccc(N2CCOCC2)cc1,active: 5.8 µM,
CCC1CN(C(=O)NCc2ccc(F)cc2)c2cc(Cl)ccc2O1 (stereo unspecified),"inconclusive: 29.1 µM [inhibitor, single point]",
Cc1ccc(S(=O)(=O)Nc2ccccc2C=NNC(=O)c2ccncc2)cc1,,inactive: -26%
O=C(CSc1ncn[nH]1)Nc1ccccc1Sc1ccc(Cl)cc1,"inconclusive: 20.6 µM [inhibitor, single point]",
CC(C)Cc1[nH]c(=O)c(C#N)c2c1COC(C)(C)C2,,inactive: 1.75%
COC(Cn1c(-c2cccc(S(=O)(=O)N(C)C)c2)n[nH]c1=S)OC,,inconclusive: -32.9% [inhibitor]
COc1cccc(NC(=O)CN(C)C(=O)c2ccccc2CCc2ccccc2)c1,"inconclusive: 25.9 µM [inhibitor, single point]",
Cc1ccc(CNS(=O)(=O)c2ccc(-n3cccn3)cc2)cc1,"inconclusive: 29.1 µM [inhibitor, single point]",
O=C1CC[C@H](O)CCN1[C@H](CSc1ccc(Br)cc1)Cc1ccccc1,active: 11.2 µM and active: 14.6 µM,
CCCOc1c(Br)cc(C2C3=C(CCCC3=O)N(CC)C3=C2C(=O)CCC3)cc1OC,"inconclusive: 29.1 µM [inhibitor, single point]",
COc1ccc(N2CCN(C3CCCN(Cc4ccc(F)c(F)c4)C3)CC2)cc1 (stereo unspecified),"inconclusive: 29.1 µM [inhibitor, single point]",
CC(OC(=O)/C(C#N)=C/c1ccc(N(C)C)cc1)C(=O)N(C)Cc1ccccc1 (stereo unspecified),"inconclusive: 23.1 µM [inhibitor, single point]",
CCOc1cc(/C=N/NC(=O)c2cc(C)n(-c3ccc(F)cc3)c2C)ccc1O,active: 16.4 µM,
CCOc1ccc2nc(NCCCNC(=O)c3cc(OC)c(OC)c(OC)c3)c(C#N)cc2c1,active: 13 µM,
CCn1nnnc1NCc1ccc(OCc2ccc(F)cc2Cl)c(OC)c1,"inconclusive: 20.6 µM [inhibitor, single point]",
O=[N+]([O-])c1ccc(N(CCO)Cc2ccccc2)c([N+](=O)[O-])c1,"inconclusive: 16.4 µM [inhibitor, single point]",
COc1ccc(CC(=O)NNc2ncnc3c2cnn3-c2ccc(C)cc2)cc1OC,,inactive: -2.73%
COCCn1c(SCC(=O)NC(=O)NCc2ccccc2)nc2ccccc21,"inconclusive: 29.1 µM [inhibitor, single point]",
CCn1cc(S(=O)(=O)c2ccc(OC)cc2)c(=O)c2cc(F)c(N3CCCCCC3)cc21,"inconclusive: 29.1 µM [inhibitor, single point]",
COc1ccc2cc3cc(C(=O)N4CCN(c5ccccn5)CC4)oc3nc2c1,"inconclusive: 29.1 µM [inhibitor, single point]",

# From PubChem BioAssay AID686979 (National Center for Advancing Translational Sciences (NCATS), 2013)
